From PubChem BioAssay AID1508623 (National Center for Advancing Translational Sciences (NCATS), 2021)
The campaign covered roughly 48,000 compounds. About 450 (0.94%) were called active. About 19% were inconclusive and are not listed. Calls come from the whole dose curve; as a rule, active = well fitted inhibition curve with a large enough effect; inconclusive = small, poorly fitted or top-dose-only effect; inactive = no such curve, though single readings can be large or run the other way. Some of the results follow.

test: Primary qHTS for Identification of Small Molecule Inhibitors of Huntingtin Promoter Activity; details: HEK293 HTT promoter firefly luciferase reporter (activity 0% = vehicle and -100% = no light), 24 h; series mostly up to 57.5 µM; activity change, negative = inhibition: at the top concentration; note: nearly all actives have a fitted effect of over 50% in size
Text: Assay Provider: Russell L. Margolis M.D.
Department Neurology, Johns Hopkins University School of Medicine, Baltimore, MD
Huntington's Disease (HD) is a neurodegenerative disorder caused by a CAG repeat expansion in exon 1 of huntingtin (HTT). While there are currently no disease-modifying treatments for HD, recent efforts have focused on development of nucleotide-based therapeutics to lower HTT expression. As an alternative to siRNA or oligonucleotide methods, we hypothesized that suppression of HTT expression might be accomplished by small molecules that either (1) directly decrease HTT expression by suppressing HTT promoter activity or (2) indirectly decrease HTT expression by increasing the promoter activity of HTT-AS, the gene antisense to HTT that appears to inhibit expression of HTT.
We developed and employed a high throughput screen for modifiers of HTT and HTT-AS promoter activity using luminescent reporter HEK293 cells; of the 52,041 compounds tested, we identified 898 replicable hits. We used a rigorous stepwise approach to assess compound toxicity and the capacity of the compounds to specifically lower huntingtin protein in 5 different cell lines, including HEK293 cells, HD lymphoblastoid cells, mouse primary neurons, HD iPSCs differentiated into cortical-like neurons, and HD hESCs. We found no compounds which were able to lower huntingtin without lowering cell viability in all assays, though the potential efficacy of a few compounds at non-toxic doses could not be excluded.
SEQUENCE No. (1, 2, 3, etc.); […] (e.g., Cells, Incubation, Reagent, etc.); VALUE and DESCRIPTION.
1; Reagent; 4 uL; 2,500 Hek293 luciferase reporter cells per wells
3; Compound; 23 nL; Control inhibitor / compound library
5; Reagent; 2.5 uL; Firefly Luc reagent; Dual-Glo Luciferase Reporter Assay System (Promega)
6; Time; 10 min; room temperature incubation
7; Detection; Luminescence; FLuc
NOTES (numbers refer to sequence above)
1; High-throughput screening, measuring luminescence from a Hek293 luciferase reporter, was performed in 1,536 well white-walled tissue-culture treated plates. 2,500 cells were plated in 4 µL of Opti-MEM per well using a Multidrop Combi Reagent Dispenser (ThermoFisher).
2; Assay plates were cultured for 24 hours.
3; Control inhibitor (PTC124; final concentration of 50 uM) and compound library (at final concentrations of 460 nM - 57.5 uM) were added to the assay plate using the Kalypsis Pintool Robotic System equipped with 1536 pinheads.
4; Cells were then incubated for 24 hours at 37 degrees C prior to luminescence measurements.
5; In all cases, luminescence was measured using the Dual-Glo Luciferase Reporter Assay System (Promega) following the manufacturer's instructions.
6; Room temperature incubation.
7; Luminescence signal was obtained using the PerkinElmer ViewLux plate reader. Results were normalized to vehicle control (0% activity) and zero RLU (-100% activity).
Potency is the fitted concentration of half-maximal effect.

Row | Compound | activity change, negative = inhibition | Potency
1 | CC(=O)CCC(=O)O | inactive: -4.91% | 
2 | O=C(CCOc1ccccc1)N(Cc1cccnc1)c1nc2ccc(Cl)cc2s1 | inactive: -9.33% | 
3 | CCOC(=O)c1ccc(NC(=O)CSc2nc3cc4ccccc4cc3[nH]2)cc1 | inactive: -13.3% [at 11.5 µM] | 
4 | Cc1nc2nc(NC(=O)c3ccc(C(C)(C)C)cc3)[nH]n2c(=O)c1Cc1ccccc1 | inactive: -10.6% | 
5 | COc1ccc(CNC(=O)Cn2ccc3cc(S(=O)(=O)N4CCCCC4)ccc32)cc1OC | inactive: -15.7% | 
6 | Cc1ccc(-n2c(=O)c3c4c(sc3n(Cc3cc(=O)n5ccccc5n3)c2=O)CCC4)cc1C | inactive: -2.37% | 
7 | COc1cc(CN2CCN(S(=O)(=O)c3ccc(NC(C)=O)cc3)CC2)cc(OC)c1OC | inactive: -9.29% | 
8 | C/C=C(/C(=C/C)c1ccc(OC(C)=O)cc1)c1ccc(OC(C)=O)cc1 | inactive: -11.4% | 
9 | CCOC(=O)c1sc2ccccc2c1S(=O)(=O)Nc1ccc(C(C)=O)cc1 | inactive: -0.43% | 
10 | Cc1cccc(Cn2c(=O)n(Cc3ccccc3)c(=O)c3c2c2cc(C)ccc2n3C)c1 | inactive: -8.46% | 
11 | CCn1cc(C(=O)NCCc2ccc(OC)c(OC)c2)c(=O)c2cc(S(=O)(=O)N3CCCCCC3)ccc21 | inactive: -5.54% | 
12 | CCc1ccc(N(CC)C(=O)Cn2nc(Cc3cccnc3)c3ccccc3c2=O)cc1 | inactive: -24% | 
13 | COc1ccccc1NC(=O)c1oc2ccccc2c1NC(=O)COc1cccc(C)c1 | inactive: -1.94% | 
14 | COc1ccc(Cl)cc1NC(=O)N(C)CCc1c(C)nn(C)c1C | inactive: 26.7% | 
15 | Cc1ccc2oc(-c3ccc(C)c(NC(=O)C(C)(C)Oc4ccc(Cl)cc4)c3)nc2c1 | inactive: 48.9% | 
16 | CCc1cccc(-n2c(=O)c3cccnc3n2CC(=O)Nc2c(C)cc(C)cc2C)c1 | inactive: -7.09% | 
17 | COc1cc(S(=O)(=O)NCCc2c(C)[nH]c3ccccc23)c(C)cc1C | inactive: -13.9% | 
18 | COc1ccc2nc(N(Cc3cccnc3)C(=O)Cc3ccccc3)sc2c1 | inactive: -23.9% | 
19 | CC(=O)N1CCc2cc(S(=O)(=O)C(C)CC(=O)Nc3ccc(Br)c(C)c3)ccc21 (configuration not stated) | inactive: -24.9% | 
20 | CC(=O)Nc1ccc(S(=O)(=O)NC2=NCN(CCO)CN2)cc1 | inactive: -7.31% | 
21 | Fc1cccc(-c2nnn3c2nc(NC2CCCCC2)c2ccccc23)c1 | inactive: -7.98% | 
22 | COc1ccc(NC(=O)C2=C(C)Nc3ncnn3C2c2cccn2C)cc1 (configuration not stated) | inactive: -12.2% | 
23 | COc1ccccc1CNC(=O)CN1C(=O)COc2ccc(S(=O)(=O)NC3CCCC3)cc21 | inactive: 1.95% | 
24 | CC1CCN(CC2CCN(C(=O)Nc3ccc(Br)cc3F)CC2)CC1 | inactive: -2.8% | 

Row | Compound | activity change, negative = inhibition | Potency
25 | Cc1cccc(-n2c(CNC(=O)c3cccc(F)c3)nnc2SCC(=O)Nc2ccccc2F)c1 | inactive: -8.59% | 
26 | COc1ccc(Cc2cnc(N)nc2N)cc1OC | inactive: -2.03% | 
27 | Cc1noc(C)c1S(=O)(=O)N(CC(=O)NCCc1ccccc1)c1ccc(C(C)C)cc1 | inactive: -13.7% | 
28 | CCOCCCN1C(=O)c2ccccc2CC1(C)C(=O)NC1CCCCC1 (configuration not stated) | inactive: -15.1% | 
29 | COC(=O)c1ccccc1NC(=O)c1sc2nc(C)cc(C)c2c1NC(=O)c1ccccc1OC | inactive: -10.4% | 
30 | COc1ccc(CNC(=O)CN2C(=O)CSc3ccc(S(=O)(=O)N4CCC(C)CC4)cc32)cc1 | inactive: -21% | 
31 | COc1ccc(/C=C/C(=O)Nc2nc(-c3cccs3)ns2)cc1 | inactive: -16.2% | 
32 | COc1ccc(-c2nc(S(=O)(=O)c3ccc(Cl)cc3)c(NCc3ccccc3)o2)cc1 | inactive: -3.8% | 
33 | COc1cc(-c2nc(Cn3nnc(C(=O)Nc4cccc(Cl)c4)c3C)c(C)o2)cc(OC)c1OC | inactive: -0.6% | 
34 | COc1ccc(CNC(=O)C2CCC(CNS(=O)(=O)c3ccc4c(c3)CCCC(=O)N4)CC2)cc1 (configuration not stated) | inactive: -24.3% | 
35 | Cc1ccc(-c2cn3c(n2)sc2cc(C(=O)NCCC4=CCCCC4)ccc23)cc1 | inactive: 52.1% | 
36 | CCOC(=O)CSc1nc2c(sc3ccccc32)c(=O)n1CCO | inactive: -26.3% | 
37 | CCN(CC)CCCNc1ncnc2c1cnn2-c1ccc(C)c(C)c1 | inactive: -10.3% | 
38 | Cc1csc2nc(COc3cccc(NC(=O)c4ccccc4F)c3)cc(=O)n12 | inactive: 0.3% | 
39 | COc1ccc(OCC(O)Cn2c(NCCO)nc3c2c(=O)n(C)c(=O)n3C)cc1 (configuration not stated) |  | active: 14.1 µM
40 | Cc1nn(CC(=O)N2CCN(c3ccc(Cl)cc3)CC2)c(=O)c2cccn12 | inactive: 2.87% | 
41 | Cc1ccc2nc(COc3ccccc3NC(=O)c3ccc(F)cc3)cc(=O)n2c1 | inactive: -12% | 
42 | O=C(CSc1nc2c([nH]c3ccccc32)c(=O)n1-c1ccc(Cl)cc1)c1ccccc1 | inactive: -8.37% | 
43 | O=C(CSC1=Nc2ccccc2N=C(c2ccc(F)cc2)C1)Nc1ccccc1 | inactive: -14.3% | 
44 | CCOc1ccc(NC(=O)c2c(NC(=O)Cc3ccccc3)sc3c2CCCCC3)cc1 | inactive: 0.237% | 
45 | Cc1ccc(-n2c(=O)c3c(c4cc(C)ccc4n3C)n(CC(=O)N3CCCC3)c2=O)cc1 | inactive: -7.01% | 
46 | CC(Cc1ccccc1)(NC(=O)CN)c1ccccc1 (configuration not stated) | inactive: -1.85% | 
47 | COc1ccccc1CNC(=O)c1cn(C)c2ccc(S(=O)(=O)N(C)C3CCCCC3)cc2c1=O | inactive: -24.5% [at 11.5 µM] | 
